Reference: PubChem BioAssay AID686979 (National Center for Advancing Translational Sciences (NCATS), 2013)
In all, about 420,000 compounds went through this assay and about 50,000 (12%) were called active. Inconclusive results, whose numbers are uncertain, are shown with a selection of clear calls. Calls come from the whole dose curve; as a rule, active = well fitted inhibition curve with a large enough effect; inconclusive = small, poorly fitted or top-dose-only effect; inactive = flat fitted curve, though single readings scatter. No potency is given beside an inconclusive call; the fits are too rough.

experiment: qHTS for Inhibitors of human tyrosyl-DNA phosphodiesterase 1 (TDP1): qHTS in cells in presence of CPT; conditions: chicken DT40 Tdp1-/-;hTDP1 cells + 20 nM CPT, ATP luminescence, 48 h; activity change, negative = growth inhibition: at 46.2 µM (top of the series); note: nearly all actives have a fitted effect of over 55% in size
Outline: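 Chicken DT40 Tdp1-/- cells complemented with human TDP1, 400 cells/well, exposed to compounds plus 20 nM camptothecin for at least 48 h at 37 C; viability read as ATP content by CellTiter-Glo luminescence.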
% is set by controls: 0 for no effect and ±100 for the full control effect; potency is the fitted concentration of half-maximal effect; tags give direction and shape of the fitted curve.

| Structure (SMILES) | Potency | activity change, negative = growth inhibition |
| --- | --- | --- |
| O=C(Nc1cc(C(F)(F)F)ccc1Cl)c1cc(S(=O)(=O)NCc2ccccc2)ccc1F | inconclusive [inhibitor, single point] | – |
| CCOC(=O)CC(c1ccc(N)cc1)n1c(C)ccc1C (centres undefined) | – | inconclusive: -30.1% [inhibitor] |
| O=C(Nc1ccn(CCCN2CCN(c3ccccc3)CC2)c(=O)n1)OCc1ccccc1 | inconclusive [inhibitor, single point] | – |
| Fc1ccc(NCc2cn3ccccc3n2)cc1 | inconclusive [inhibitor, partial curve] | – |
| O=C(O)/C=C/C(=O)N1CCN(c2ccccc2F)CC1 | – | inactive: -0.742% |
| COc1ccc(Br)cc1/C=N/NC(=O)CN1CCCCC1 | inconclusive [inhibitor, single point] | – |
| O=C(CN1C(=O)S/C(=C\c2cccc(Cl)c2)C1=O)NCCCn1ccnc1 | inconclusive [inhibitor, single point] | – |
| COc1ccc(OCCSc2ccc(S(=O)(=O)N3CCCC3)cn2)cc1 | inconclusive [inhibitor, single point] | – |
| Fc1ccc(NC(=S)NCc2cccs2)cc1 | inconclusive [inhibitor, single point] | – |
| C=CCn1c(O)c(N=NC(=O)CNC(=O)/C=C/c2ccco2)c2ccccc21 | – | inactive: 1.01% |
| COc1ccccc1OC(C)C(=O)Nc1ccccc1C(=O)NCc1cccnc1 (centres undefined) | – | inactive: -10.4% |
| Cc1c(Cl)cccc1-c1ccc(C(=O)N2CCN(c3ccc([N+](=O)[O-])cc3)CC2)o1 | inconclusive [inhibitor, single point] | – |
| CCOC(=O)c1cccc(NC(=O)CC2C(=O)N(c3ccc(F)cc3)C(=O)N2C(C)C)c1 (centres undefined) | inconclusive [inhibitor, partial curve] | – |
| Cc1c(Cl)cccc1NC(=O)CNCc1ccccc1F | – | inactive: -14.5% |
| CC(=O)Nc1cccc(NC(=O)c2ccc([N+](=O)[O-])cc2Cl)c1 | – | inactive: -16.9% |
| CN(Cc1cccs1)C(=O)CCCc1c[nH]c2ccccc12 | inconclusive [inhibitor, partial curve] | – |
| CCn1nc(NC(=O)Cc2ccc(OC)cc2)c2cc3cccc(C)c3nc21 | inconclusive [inhibitor, single point] | – |
| COc1ccc(NC(=O)NCCCCc2ccccc2)c(OC)c1 | inconclusive [inhibitor, single point] | – |
| COc1c(N2CCN(C(=S)Nc3ccccc3F)C(C)C2)c(F)cc2c(=O)c(C(=O)O)cn(C3CC3)c12 (centres undefined) | – | inactive: -27.8% |
| CS(=O)(=O)c1ccc(Cn2c3c(c4cc(F)cc(F)c42)CCC[C@H]3CC(=O)O)cc1 | – | inactive: 14.2% |
| O=c1[nH]c(SCc2nc3ccccc3c(=O)n2-c2ccccc2C(F)(F)F)nc2ccccc12 | active: 16.4 µM | – |
| O=C(Nc1ccc2ccccc2c1)Nc1ccc2snnc2c1 | inconclusive [inhibitor, single point] | – |

| Structure (SMILES) | Potency | activity change, negative = growth inhibition |
| --- | --- | --- |
| CCOC(=O)N1CCN(C(=O)C2CCN(S(=O)(=O)c3c(C)cc(C)cc3C)CC2)CC1 | – | inconclusive: -34.7% [inhibitor] |
| CCc1cc(C(=O)N2CCCC(C(=O)c3ccc(OC)c(F)c3)C2)n(C)n1 (centres undefined) | inconclusive [inhibitor, single point] | – |
| Cc1cc(OCC(=O)Nc2ccc(N3CCCC3)cc2)cc(C)c1Cl | – | inactive: 2.28% |
| COc1ccc(NC(=O)C(Cc2ccccc2)NS(=O)(=O)c2ccc(Br)s2)cc1OC (centres undefined) | inconclusive [inhibitor, single point] | – |
| C=CCN(c1cccc(C(F)(F)F)c1)S(=O)(=O)c1cccc(C(=O)OCC(=O)Nc2ccccc2)c1 | – | inactive: 0.0646% |
| COC(=O)CCCCCN1C(=O)/C(=C\c2ccncc2)SC1=S | inconclusive [inhibitor, single point] | – |
| COc1cc(C(=O)OCCCN=C2NS(=O)(=O)c3ccccc32)cc(OC)c1OC | inconclusive [inhibitor, single point] | – |
| CC(c1ccccc1)C(CC(=O)O)C(=O)Nc1ccc(Cl)c(Cl)c1 (centres undefined) | – | inactive: -3.48% |
| O=C(Nc1cccc(-c2nc3cccnc3s2)c1)c1ccc(Cl)nc1 | inconclusive [inhibitor, single point] | – |
| Cc1ccc(-c2nc3ncccc3o2)cc1NC(=O)COc1ccc(C(C)C)cc1 | inconclusive [inhibitor, single point] | – |
| Nc1c(C(=O)Nc2ccc(Cl)cc2)sc2nc(N3CCOCC3)c3c(c12)CCCC3 | inconclusive [inhibitor, single point] | – |
| Cc1ccc(S(=O)(=O)Nc2cccc(C(=O)NCC(c3ccco3)N(C)C)c2)cc1F (centres undefined) | inconclusive [inhibitor, single point] | – |
| CCOc1c(Br)cc(CNc2ccc(N3CCOCC3)cc2)cc1OC | inconclusive [inhibitor, single point] | – |
| Cc1ccc(OCC(=O)Nc2ccccc2[N+](=O)[O-])c(Br)c1 | – | inactive: -8.76% |
| Cc1ccc(S(=O)(=O)N2CCN(C(=O)C(C)Cn3cncn3)CC2)cc1 (centres undefined) | – | inactive: 8.13% |
| COc1cccc(Cn2c(=O)c(-c3ccc(F)cc3)nc3cnc(N4CCNCC4)nc32)c1 | active: 13 µM | – |
| COc1ccc(-n2c(CNC(=O)c3cc(C(F)(F)F)ccc3Cl)nnc2SC)cc1 | – | inactive: 21.6% |
| C=CCn1c(CNC(=O)c2ccco2)nnc1SCC(=O)N1c2ccccc2Sc2ccccc21 | inconclusive [inhibitor, single point] | – |
| CN(C)C(=O)c1ccc(S(=O)(=O)NCc2ccc(Cl)cc2)s1 | inconclusive [inhibitor, single point] | – |
| CCCCN(CC)C(=O)CSc1nc2c(sc3ccccc32)c(=O)n1CCc1ccccc1 | inconclusive [inhibitor, partial curve] | – |
| CCc1ccccc1Nc1sc(C(=O)c2ccccc2)c(N)c1S(=O)(=O)c1ccccc1 | inconclusive [inhibitor, single point] | – |
| CC1CCc2sc(C(=O)NCC(C)(C)N3CCOCC3)cc2C1 (centres undefined) | inconclusive [inhibitor, single point] | – |
